Experimental data published in the antibiotic and cytotoxicity screens of Wong et al. (2023).
Some of the results follow.

Experiments:
HSkMC = human skeletal muscle cells; experiment: cytotoxicity call (relative viability < 0.9); conditions: 10 µM
HepG2 = experiment: cytotoxicity call (relative viability < 0.9); conditions: 10 µM
S. aureus RN4220 = experiment: growth inhibition call (relative growth <= 0.2); conditions: 50 µM

C[C@@H]1CN([C@@H](C)CO)C(=O)c2cc(NS(C)(=O)=O)ccc2O[C@@H]1CN(C)S(=O)(=O)c1ccc(Cl)cc1
inactive: cytotoxicity call (HSkMC) | cytotoxicity call (HepG2) | growth inhibition call (S. aureus RN4220)

COc1cc(OC)c2c(=O)c(OC)c(-c3ccccc3)oc2c1
inactive: cytotoxicity call (HSkMC) | cytotoxicity call (HepG2) | growth inhibition call (S. aureus RN4220)

C[C@@H]1CCCCO[C@@H](CN(C)C(=O)Nc2ccc(F)cc2)[C@H](C)CN([C@@H](C)CO)C(=O)c2cc(NC(=O)c3ccncc3)ccc2O1
inactive: cytotoxicity call (HSkMC) | cytotoxicity call (HepG2) | growth inhibition call (S. aureus RN4220)

O=C(Oc1ccccc1C(=O)O)c1ccccc1O
inactive: cytotoxicity call (HSkMC) | cytotoxicity call (HepG2) | growth inhibition call (S. aureus RN4220)

CC(=O)N[C@H](Cc1ccc2ccccc2c1)C(=O)N[C@H](Cc1ccc(Cl)cc1)C(=O)N[C@H](Cc1cccnc1)C(=O)N[C@@H](CO)C(=O)N(C)[C@@H](Cc1ccc(O)cc1)C(=O)N[C@H](CC(N)=O)C(=O)N[C@@H](CC(C)C)C(=O)N[C@@H](CCCCNC(C)C)C(=O)N1CCC[C@H]1C(=O)N[C@H](C)C(N)=O
inactive: cytotoxicity call (HSkMC) | cytotoxicity call (HepG2) | growth inhibition call (S. aureus RN4220)

O=C(C[C@H]1CC[C@H]2[C@@H](COC[C@@H](O)CN2S(=O)(=O)c2ccc(Cl)cc2)O1)NCCN1CCCCC1
inactive: cytotoxicity call (HSkMC) | cytotoxicity call (HepG2) | growth inhibition call (S. aureus RN4220)

C[C@H]1CN([C@@H](C)CO)C(=O)Cc2cc(NC(=O)CCN3CCOCC3)ccc2O[C@@H]1CN(C)Cc1ccccc1
inactive: cytotoxicity call (HSkMC) | cytotoxicity call (HepG2) | growth inhibition call (S. aureus RN4220)

O=C(C[C@@H]1CC[C@@H]2[C@H](COC[C@@H](O)CN2C(=O)c2ccccc2F)O1)N1CCN(c2ccccc2)CC1
inactive: cytotoxicity call (HSkMC) | cytotoxicity call (HepG2) | growth inhibition call (S. aureus RN4220)

O=C(C[C@@H]1CC[C@H]2[C@@H](COC[C@@H](O)CN2S(=O)(=O)c2ccccc2Cl)O1)NCCc1ccncc1
inactive: cytotoxicity call (HSkMC) | cytotoxicity call (HepG2) | growth inhibition call (S. aureus RN4220)
